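Compound exposure: 48 hours, 5 concentrations, 96-well plates. The concentration for 50% growth inhibition is given as GI50. The concentration for full growth arrest is given as TGI.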
What follows are compounds tested on NCI-H322M lung (assay: growth of human tumour cells (NCI), 48 h).

Row | SMILES | TGI | GI50
1 | CCOC(=O)NC(=O)c1cn(CCSCCOC(=O)NCCCCCCNC(=O)OCCSCCn2cc(C(=O)NC(=O)OCC)c(=O)[nH]c2=O)c(=O)[nH]c1=O | > 100 µM | 
2 | Cc1cc(N=Nc2ccc(N=Nc3c(O)c(S(=O)(=O)O)cc4cc(S(=O)(=O)O)ccc34)cc2C)ccc1N=Nc1ccc2cc(S(=O)(=O)O)cc(S(=O)(=O)O)c2c1 | > 100 µM | 
3 | CN1CCCCC1CCN1c2ccccc2Sc2ccc(S(C)=O)cc21 (stereo not drawn) | > 100 µM | 
4 | COc1ccc(-c2nnc(CCCCCCCCc3nnc(-c4ccc(OC)cc4)o3)o2)cc1 | > 100 µM | 
5 | CC(=O)OCC1OC(Sc2ccccn2)C=CC1OC(C)=O (stereo not drawn) | > 100 µM | 
6 | O=C(c1ccccc1)c1c(CNCc2ccccc2)n(C(=O)c2ccccc2)c2ccccc12 | > 100 µM | 
7 | COc1ccccc1Cn1c2c(c3c(C(=O)NCCN(C)C)c(O)ccc31)C(=O)c1ccccc1C2=O | 3.54 µM | 
8 | CC(C)[C@@H]1CC[C@@H]2[C@@H]1[C@H](OC(=O)/C=C/c1ccccc1)[C@]1(C(C)C)C[C@@H](OC(=O)CO)[C@@]2(C)O1 | 10.7 µM | 5.9 µM
9 | O=C(/C(=C/c1cccs1)c1ccccc1)c1ccccc1 | > 100 µM | 
10 | CCCCOC(=O)C1CN2C(=NC1(C(F)(F)F)C(F)(F)F)Sc1ccccc12 (stereo not drawn) | > 100 µM | 
11 | O=C1O[C@H]2[C@@H]3OC(=O)c4cc(O)c(O)c(O)c4-c4c(cc(O)c(O)c4O)C(=O)OC[C@H]2O[C@@H](OC(=O)c2cc(O)c(O)c(O)c2)[C@@H]3OC(=O)c2cc(O)c(O)c3c2[C@@H]2C1=CC(=O)C(O)(O)C2(O)O3 (stereo partly drawn) | > 100 µM | 
12 | CCNc1ncnc2n[nH]nc12 | > 100 µM | 
13 | CCOC(=O)c1cc(-c2ccc(Cl)cc2)c([N+](=O)[O-])n1C | > 10 µM | 
14 | COc1cc2c(cc1O)C(C)Cc1cc3c(cc1N(C)CC2)OCO3 (stereo not drawn) | > 58.6 µM | 
15 | COc1cc2c3c(n(CCCCl)c(=O)c2cc1OC)-c1ccc(C#N)cc1C3=O | > 100 µM | 69.5 µM
16 | CC1Cc2cc(O)ccc2C2[C@@H]1C1CC[C@H](O)[C@@]1(C)C[C@@H]2O[N+](=O)[O-] (stereo partly drawn) | > 100 µM | 
17 | Cc1cc2[nH]c3c(C#N)c(-c4ccccc4)c(CN4CCOCC4)c(=O)n3c2cc1C | > 100 µM | 
18 | COC(=O)C1CCC(=O)N1C(c1ccc2c(c1)OCO2)c1ccc2c(c1)OCO2 (stereo not drawn) | > 100 µM | 
19 | CCc1n[nH]c(=O)n1NC(=O)/C=C\C(=O)O | > 100 µM | 
20 | N#CC1=C(c2ccccc2)C(O)(c2ccccc2)NC1=O (stereo not drawn) | > 100 µM | 
21 | CC/C=C\C/C=C\C[C@H]1C/C=C2/C(=O)C=C[C@H]2C/C=C\CCC(=O)O1 | > 14.3 µM | 4.37 µM
22 | O=C(Nc1c(Cl)cc([N+](=O)[O-])cc1Cl)/C(=N\Nc1cccc(Cl)c1)c1c(O)c2ccccc2oc1=O | > 100 µM | 
23 | COc1cc(C2C(C#N)=C(N)Oc3cc(O)ccc32)cc(OC)c1OC (stereo not drawn) | > 100 µM | 2.94 µM
24 | CN(C)/C(N)=N/C(N)=S | > 100 µM | 
25 | NC(N)=Nc1nc2ccccc2[nH]1 | 123 µg/mL | 66.3 µg/mL

Row | SMILES | TGI | GI50
26 | CNC1C(OC2C(OC3C(O)C(O)C(O)C(O)C3O)OC(C)C2(O)CO)OC(CO)C(O)C1O (stereo not drawn) (tested in a mixture with another compound) | > 100 µM | 
27 | CC(=O)Nc1sc2c(c1-c1nc3ccccc3s1)CNC2 | 14.9 µM | 2.46 µM
28 | COc1cc(NC(N)=NCCC(C)(C)c2ccc(C(F)(F)F)cc2)ncc1C#N | 3.57 µM | 1.99 µM
29 | CC(C)Oc1ccc(C(=O)N[C@H](CNC(=O)CN(C)C)Cc2ccc(-c3cn4cccc([C@H](C)O)c4n3)cc2)cc1Cl | 20.1 µM | 0.0511 µM
30 | CC(C)(C)NC1C2CCC(C)(C1O)C2(C)C (stereo not drawn) | > 100 µM | 
31 | Cc1c2cccc-2c(OCCO)cc2c1[nH]c1ccccc12 | > 41.4 µM | 
32 | C[C@]12CC[C@H]3[C@@H](C[C@@H]4N=C(c5ccc(O)cc5)S[C@@]45C[C@H](O)CC[C@]35C)[C@@H]1CC[C@@H]2O | > 100 µM | 31.1 µM
33 | COc1ccc(C#CCC(OC2OC(CO)C(O)C(O)C2O)C(O)c2ccc(OC)c(OC)c2)cc1OC (stereo not drawn) | > 100 µM | 
34 | CCN(CC(COc1ccc2c(c1)[n+]([O-])nc(N)[n+]2[O-])OC(C)=O)C(C)=O (stereo not drawn) | > 100 µM | 
35 | CCCCCCCCCCCCP(=O)(O)OCC(N)C(=O)O (stereo not drawn) | 55.6 µM | 
36 | Cc1ccc(C2=C(c3ccccc3)C(O)(c3ccc(C)cc3)C(c3ccccc3)=C2c2ccc(C)cc2)cc1 | > 100 µM | 
37 | CSc1nc2c(c(=O)[nH]1)C(c1ccc(Cl)cc1)C1=C(N2)/C(=C/c2ccc(Cl)cc2)CNC1 (stereo not drawn) | 12.3 µM | 3.2 µM
38 | COc1cc(OC)cc(-c2cncn2-c2ccc(-c3nc4cc(OC)c(OC)c(OC)c4s3)cc2)c1 | > 100 µM | 86.5 µM
39 | O=C(O)/C=C\C(=O)Nc1ccc2c(c1)C(=O)c1cc(F)ccc1-2 | > 100 µM | 
40 | C=C(CN1CCN(c2cccc(F)c2)CC1)c1ccc(C(=O)Nc2ccccc2N)cc1 | > 100 µM | 4.3 µM
41 | Cc1ccccc1/C=C1\CN(C(=O)OC(C)(C)C)C/C(=C\c2ccccc2C)C1=O | 11.4 µM | 3.38 µM
42 | COc1cc(OC)nc(Nc2c(C#N)c3nc4ccccc4n3c3ccccc23)n1 | > 100 µM | 
43 | COC(=O)C1C2CCCN2OC1(C)CO (stereo not drawn) | > 100 µM | 
44 | CCSc1nc2n(c(=S)n1)CCN2C | 51.7 µM | 
45 | Cc1cc(C#N)c(Nc2c(C)cccc2[N+](=O)[O-])s1 | > 100 µM | 
46 | O=C1c2ccccc2C(=O)c2c1ccc1c2OCO1 | > 100 µM | 
47 | [N-]=[N+]=NC1=C(c2ccccc2)C(=O)c2cccc3cccc1c23 | > 100 µM | 
48 | CCC(/C(=N\Nc1c(Cl)cc(Cl)cc1Cl)c1ccccc1)n1ccnc1C (stereo not drawn) | 27.5 µM | 
49 | C[C@@]1(N2C(=O)OC[C@@H]2c2ccccc2)C(=O)N([C@H](CC(=O)N2CCC(N3CCCCC3)CC2)C(=O)NCc2cccc(C(F)(F)F)c2)[C@@H]1/C=C/c1ccccc1 | 6.05 µM | 2.23 µM

Reference: PubChem BioAssay (NCI)
